This is an account of results in a collection of fitness landscapes (doi:10.1038/s41467-024-54723-y).

The full ranking holds about 18,000 sequences; the median of “TetR repression strength (sort-seq, GFP reporter)” is about 0.23, and the highest 2% start at about 0.68. The list shows a part of the results.

The target in this experiment is TetR (class B, Tn10) (UniProt P04483). The experiment can be described thus: TetR repression strength (sort-seq, GFP reporter) (relative to tetO2 = 1); higher = stronger repression. The conditions noted are these: E. coli. A digest of the protocol: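 Repression strength was calculated by subtracting the read-weighted mean bin from the top bin index plus one and dividing by the unaltered operator's value. The plasmid library was low-copy in E. coli SIG10-MAX, with eight randomized operator positions between a constitutive promoter and sfGFP and constitutive TetR. Cultures grew 5 h at 37 °C in LB containing 50 µg/mL chloramphenicol before 10^6 cells were sorted by FACS into 13 fluorescence bins, each sequenced on Illumina. Three independent transformations were averaged for members having ≥30 reads in all replicates and a CV ≤0.5.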
Chain of UniProt P04483 (P04483 whole entry): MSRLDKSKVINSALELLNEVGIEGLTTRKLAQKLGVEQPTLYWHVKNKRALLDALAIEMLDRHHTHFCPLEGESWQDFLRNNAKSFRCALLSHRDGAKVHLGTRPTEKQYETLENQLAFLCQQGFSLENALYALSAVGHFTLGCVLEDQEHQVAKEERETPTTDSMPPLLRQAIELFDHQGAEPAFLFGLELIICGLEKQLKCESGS
TCCCGCCCAGTGTTTGAGA: the TetR repression strength worked out at 0.372. The sequence TCCCGGGGAGTCCGGGAGA yielded a TetR repression strength of 0.191. The figure for TCCCGGCTAGTCTATGAGA is 0.383; for TCCCACAGAGTATGGGAGA it is 0.143; for TCCCAAACAGTAGGGGAGA it is 0.38. On to TCCCAGTTAGTCGAGGAGA, for which the TetR repression strength was 0.251. Regarding TCCCGTTCAGTTAGCGAGA, the TetR repression strength is 0.249. As for TCCCAGAGAGTGGCCGAGA, the TetR repression strength amounted to 0.529. The value for TCCCCTGCAGTGGCGGAGA was 0.235; that for TCCCACCTAGTATTCGAGA was 0.516; that for TCCCCCTAAGTGCCCGAGA was 0.304.

As to TCCCGCCTAGTCCGCGAGA, the TetR repression strength came out at 0.17. Take TCCCGAACAGTTGGGGAGA: the TetR repression strength was 0.306. The value for TCCCTTTTAGTGCCTGAGA was 0.325; that for TCCCCATTAGTATTCGAGA was 0.24.

Turning to TCCCGAGAAGTAATAGAGA, the TetR repression strength was determined as 0.442. The value for TCCCCTTTAGTTCGAGAGA was 0.232; that for TCCCGGGCAGTAAGGGAGA was 0.46; that for TCCCTCGAAGTAGTGGAGA was 0.369.

Regarding TCCCTGTCAGTTATAGAGA, the TetR repression strength came to 0.649. The figure for TCCCTTTGAGTGGGAGAGA is 0.117; for TCCCCTTTAGTCTGGGAGA it is 0.166. Sequence TCCCCCGTAGTAGGAGAGA registered a TetR repression strength of 0.197. Turning to TCCCCAGAAGTTTTGGAGA, the TetR repression strength is 0.182. The value for TCCCACGCAGTCAGGGAGA was 0.182; that for TCCCTGTGAGTCATCGAGA was 0.105; that for TCCCTTGCAGTCACGGAGA was 0.191.

Regarding TCCCTTGTAGTCACAGAGA, the TetR repression strength turned out to be 0.106. The value for TCCCTTTAAGTCGCTGAGA was 0.207. In turn, TCCCCGAAAGTGCGCGAGA displayed a TetR repression strength of 0.155.

The sequence TCCCGCGAAGTAATTGAGA displayed a TetR repression strength of 0.32. The sequence TCCCAAAAAGTATTAGAGA displayed a TetR repression strength of 0.191. Take TCCCGGAGAGTATCAGAGA: the TetR repression strength was found to be 0.893.

Sequence TCCCTGGCAGTCGTGGAGA yielded a TetR repression strength of 0.0845. TCCCCTTTAGTCCTCGAGA returned a TetR repression strength of 0.418. Consider TCCCGATGAGTATTTGAGA, for which the TetR repression strength worked out at 0.266. For the sequence TCCCTGTAAGTCACGGAGA, the TetR repression strength was 0.193.

The sequence TCCCTTGCAGTGATCGAGA returned a TetR repression strength of 0.654. The figure for TCCCGAAAAGTCGGAGAGA is 0.311. As for TCCCGTGGAGTACCGGAGA, the TetR repression strength was found to be 0.117. The value for TCCCGAAAAGTTAGCGAGA was 0.164. The value for TCCCCTAGAGTTGGGGAGA was 0.122; that for TCCCGTGGAGTTTAGGAGA was 0.234.

For the sequence TCCCGACCAGTGTTCGAGA, the TetR repression strength was found to be 0.375. The value for TCCCTTAGAGTGGAGGAGA was 0.0629; that for TCCCATGAAGTCGGGGAGA was 0.0204; that for TCCCAGAGAGTTGAAGAGA was 0.152. The figure for TCCCGTGCAGTCATTGAGA is 0.276; for TCCCGGAGAGTGTCGGAGA it is 0.291. The figure for TCCCGTGAAGTATTTGAGA is 0.335. TCCCTTTAAGTAGGGGAGA yielded a TetR repression strength of 0.0919. TCCCTCCTAGTGCTTGAGA registered a TetR repression strength of 0.212. The figure for TCCCAGCTAGTAGGGGAGA is 0.233; for TCCCAATGAGTCTGCGAGA it is 0.281. The figure for TCCCGGTAAGTCTCTGAGA is 0.311. The value for TCCCGGCTAGTACTTGAGA was 0.199. Consider TCCCTTTGAGTACCGGAGA, for which the TetR repression strength was 0.283. For TCCCTGTCAGTGGGTGAGA, the TetR repression strength was 0.348. The figure for TCCCGCAAAGTGGCTGAGA is 0.0444; for TCCCAACAAGTGACCGAGA it is 0.231.

Regarding TCCCAATGAGTGTTCGAGA, the TetR repression strength was 0.26. The figure for TCCCGCGCAGTCCAGGAGA is 0.121; for TCCCCACGAGTACCAGAGA it is 0.475; for TCCCGTCTAGTTGACGAGA it is 0.0662.

On to TCCCTACGAGTGTGTGAGA, for which the TetR repression strength turned out to be 0.305.

As for TCCCGTACAGTCTCTGAGA, the TetR repression strength was 0.205. In turn, TCCCAACCAGTTGGGGAGA gave a TetR repression strength of 0.0981. With TCCCCCGTAGTGGGTGAGA, the TetR repression strength amounted to 0.109. Sequence TCCCTGTCAGTGCTCGAGA showed a TetR repression strength of 0.534.

Regarding TCCCACGGAGTGGTGGAGA, the TetR repression strength is 0.11. Regarding TCCCCCGTAGTGTGGGAGA, the TetR repression strength came to 0.124. The figure for TCCCAGATAGTCCTGGAGA is 0.167. TCCCGGGGAGTGATAGAGA showed a TetR repression strength of 0.531. The value for TCCCCGCCAGTTGTGGAGA was 0.181; that for TCCCGCGTAGTGGTTGAGA was 0.826; that for TCCCTGTGAGTCTCAGAGA was 0.365.

With TCCCTTGTAGTACTCGAGA, the TetR repression strength was determined as 0.182. The figure for TCCCTGCTAGTTCGCGAGA is 0.204.

Consider TCCCTTTCAGTCATCGAGA, for which the TetR repression strength came to 0.53.

TCCCCTATAGTGGATGAGA: the TetR repression strength was determined as 0.0379. The figure for TCCCGAGCAGTCGGAGAGA is 0.119; for TCCCGATCAGTGACAGAGA it is 0.742. In the case of TCCCTAGGAGTTCGAGAGA, the TetR repression strength was 0.115. The figure for TCCCTAAGAGTAGTTGAGA is 0.207; for TCCCTTTTAGTGGAAGAGA it is 0.271; for TCCCCAGGAGTAAGAGAGA it is 0.381. The figure for TCCCACTTAGTCTGTGAGA is 0.188; for TCCCCTACAGTAAGGGAGA it is 0.153. The sequence TCCCGAGCAGTTGCTGAGA had a TetR repression strength of 0.168. The figure for TCCCTGGCAGTTTGCGAGA is 0.65; for TCCCAGTGAGTTGTGGAGA it is 0.173; for TCCCACCTAGTTTTGGAGA it is 0.348. In the case of TCCCGCACAGTTATAGAGA, the TetR repression strength was found to be 0.275.

TCCCCCTGAGTGGGCGAGA: the TetR repression strength is 0.241. The value for TCCCTTTTAGTGTTCGAGA was 0.282; that for TCCCTGTCAGTCACGGAGA was 0.181. The value for TCCCAACTAGTTCGGGAGA was 0.144; that for TCCCTATAAGTTCAAGAGA was 0.458; that for TCCCGGCTAGTCCGGGAGA was 0.264. The value for TCCCTGTTAGTGCGCGAGA was 0.617; that for TCCCTTGCAGTCCCTGAGA was 0.296; that for TCCCGGTCAGTGGGGGAGA was 0.19.
